# Measured values taken from PubChem BioAssay AID686978 (National Center for Advancing Translational Sciences (NCATS), 2013).
# In all, about 420,000 compounds went through this assay and about 64,000 (15%) were called active. Inconclusive results, whose numbers are uncertain, are shown with a selection of clear calls. Calls follow the shape of the dose curve; as a rule, active = well fitted inhibition curve with a large enough effect; inconclusive = small, poorly fitted or top-dose-only effect; inactive = flat fitted curve, though single readings scatter. No potency is given beside an inconclusive call; the fits are too rough.
# Experiment: qHTS for Inhibitors of human tyrosyl-DNA phosphodiesterase 1 (TDP1): qHTS in cells in absence of CPT; also: nearly all actives have a fitted effect of over 55% in size
# Details: DT40 Tdp1-/- hTDP1 cells, no CPT, ATP luminescence, 48 h; activity change, negative = growth inhibition: at 46.2 µM (top of the series) unless noted
# Outline: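 Chicken DT40 Tdp1-/- cells stably complemented with human TDP1 were seeded at 400 cells/well with DMSO in place of 20 nM camptothecin. After compound pinning, cells grew at least 48 hr at 37 °C; viability read by CellTiter-Glo luminescence.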
# % is scaled to controls: 0 for no effect and ±100 for the full control effect; potency is read from the fitted curve at half-maximal effect; tags tell the direction and shape of the fitted curve.
SMILES,Potency,"activity change, negative = growth inhibition"
N#CC1=C(N)SC(N)=C(C#N)C1c1cccc(Oc2ccccc2)c1,"inconclusive [inhibitor, single point]",–
O=C(CSC(=S)N1CCSCC1)c1ccccc1,"inconclusive [inhibitor, single point]",–
COC(=O)c1c(C)oc(C)c1S(=O)(=O)NCc1ccc(Cl)cc1Cl,"inconclusive [inhibitor, single point]",–
CC(=O)OCC1(C)CN(c2ccccc2)NC1=O (stereo not drawn),"inconclusive [inhibitor, single point]",–
COc1cc2c(=O)n(Cc3ccco3)c(=O)n(CC(=O)Nc3ccc(F)cc3)c2cc1OC,"inconclusive [inhibitor, single point]",–
COc1ccccc1/C=N/NC(=O)CC(=O)NCc1cccnc1,inactive,–
Cc1ccc(S(=O)(=O)c2c[nH]c3ccc(Cl)cc3c2=O)cc1,inactive,–
CCC(=O)N/C(N)=N/c1nc2ccccc2o1,"inconclusive [inhibitor, single point]",–
COc1ccc(OCC(=O)NCCc2ccc(S(N)(=O)=O)cc2)cc1,inactive,–
O=C(CSc1nc(=O)n(Cc2cccnc2)c2c1CCC2)Nc1cccc(Cl)c1,"inconclusive [inhibitor, partial curve]",–
Cc1nc(SCC(=O)Nc2ccccc2Cl)c2c(C)c(C)sc2n1,–,inconclusive: -35.7% [inhibitor]
Cc1ccc(Nc2nc(CSc3nnc(-c4cccs4)o3)cs2)cc1,"inconclusive [inhibitor, single point]",–
CC/C(C)=N/NC(=S)NCc1ccco1,inactive,–
Cc1nc(-c2ccc(Cl)cc2)sc1CCNC(=O)C(=O)Nc1ccc2c(c1)OCCO2,"inconclusive [inhibitor, partial curve]",–
COc1ccc(C(=O)C2CCCN(Cc3ccc4nonc4c3)C2)c(C)c1 (stereo not drawn),"inconclusive [inhibitor, single point]",–
COc1cc(/C=C/C(=O)c2ccc(C)c([N+](=O)[O-])c2)cc(OC)c1O,active: 14.6 µM,–
CCOc1ccc(NC(=O)CN(C)C(=O)c2sc3ccccc3c2Cl)cc1OCC,"inconclusive [inhibitor, single point]",–
COc1ccc(NC(=O)C[C@H]2C(=O)N(C3CCCCC3)C[C@@H]2CSC)cc1,"inconclusive [inhibitor, partial curve]",–
COc1ccc(CNC(=O)CC23CC4CC(CC(C4)C2)C3)cc1OC,inactive,–
CCC1NC(=O)c2ccccc2N1c1cccc(Cl)c1 (stereo not drawn),active: 16.4 µM,–
O=c1cc(-c2ccccc2O)oc2c(O)c(O)ccc12,active: 29.9 µM,–
O=C(O)c1cccc(-n2cccc2/C=C2\NC(=O)N(Cc3ccc(F)cc3)C2=O)c1,"inconclusive [inhibitor, single point]",–
Cc1[nH]c2ccccc2c1SCC(=O)NNC(=O)Nc1ccc(OC(F)(F)F)cc1,inactive,–
CCCCN(C(=O)C1CC(=O)N(c2ccc3c(c2)OCCO3)C1)c1c(N)n(CC(C)C)c(=O)[nH]c1=O (stereo not drawn),–,inconclusive: -32.8% [inhibitor]

SMILES,Potency,"activity change, negative = growth inhibition"
COc1cccc(CNC(=O)c2cccc(Br)c2)c1,"inconclusive [inhibitor, single point]",–
Cc1cc(C)cc(NC(=O)N2CCC(C(N)=O)(N3CCCCC3)CC2)c1,inactive,–
O=C1C(NS(=O)(=O)c2cccs2)=C(N2CCN(c3cccc(C(F)(F)F)c3)CC2)C(=O)c2ccccc21,active: 23.1 µM,–
CN(C)C(=O)CCC(=O)N1CCCC(C(=O)c2ccc(C(F)(F)F)cc2)C1 (stereo not drawn),active: 25.9 µM,–
CCn1c(CC(=O)Nc2ccccc2C)nnc1SCC(=O)NC1=NCCS1,inactive,–
COc1ccc(C(F)(F)F)cc1N/C=C\c1nnnn1-c1ccc(C)cc1,"inconclusive [inhibitor, partial curve]",–
O=C(NCc1ccccn1)c1ccc2c(c1)N(Cc1ccccc1)CCS2,"inconclusive [inhibitor, single point]",–
O=C(NCCCN1CCCC1=O)c1cc(S(=O)(=O)N2CCOCC2)ccc1Cl,inactive,–
Cc1[nH]c2ccccc2c1N=Nc1ccc(F)cc1,"inconclusive [inhibitor, single point]",–
O=C(O)c1ccc([N+](=O)[O-])c2c1C(=O)c1ccccc1C2=O,inactive,–
CN1OC[C@@H]2CN(Cc3cc(Cl)cc(Cl)c3)[C@H](c3cccc(Br)c3)C[C@@H]21,active: 20.6 µM,–
COc1ccccc1Cn1c(=S)[nH]c2cc(C(=O)N3CCCC(C)C3)ccc2c1=O (stereo not drawn),"inconclusive [inhibitor, single point]",–
COc1ccccc1N1CCN(CC(=O)c2c(N)n(C)c(=O)n(C)c2=O)CC1,"inconclusive [inhibitor, single point]",–
CC(=O)N1c2ccc(Cl)cc2C2OCCC2C1c1ccco1 (stereo not drawn),inactive,–
COc1ccc(C(=O)COC(=O)CCn2nnc(-c3cccc(O)c3OC)n2)cc1,inactive,–
COc1ccc(N2CC(NC(=O)C(=O)c3c[nH]c4ccccc34)CC2=O)cc1 (stereo not drawn),inactive,–
Cc1nc2sc3c(=O)[nH]nnc3c2c(C)c1Br,inactive,–
COc1ccc(C)cc1NC(=O)COC(=O)c1ccc(OCc2ccc(Cl)cc2Cl)c(OC)c1,active: 16.4 µM,–
O=C(CCSCc1cccc(Cl)c1)NCc1ccccc1Cl,active: 25.9 µM,–
CCn1nc(C)cc1C(=O)N1CCCC(C(=O)c2ccc(Oc3ccccc3)cc2)C1 (stereo not drawn),"inconclusive [inhibitor, partial curve, poor fit]",–
CCOC(=O)C1Cn2c(nc3c(c2=O)C(C)(CC)Cc2ccccc2-3)S1 (stereo not drawn),"inconclusive [inhibitor, single point]",–
COCCNC(=O)c1ccc(S(=O)(=O)N2CCCc3ccccc32)cc1,inactive,–
O=c1c(N2CCN(c3ccccc3)CC2)csc2ccc(Cl)cc12,"inconclusive [inhibitor, single point]",–
Cc1ccc(S(=O)(=O)NCCCNC(=O)OCc2ccccc2)cc1,"inconclusive [inhibitor, single point]",–
